Experiment in all cases: SPR
(In general: In SPR one partner is held on a chip, and binding of the other changes the refractive index at the surface.)

The target in experiment [1] is T1, HER2 (human, UniProt P04626).
The target in experiment [2] is T1, HER2. The source holds these as a separate data set.
Experiment [3] addresses T1, HER2. The source holds these as a separate data set.

Like-named read-outs stand apart in the source and are kept apart here.

B1: CODV-Ig 301/417 HC10/LC10, HER2 arm (antibody)
chain 1: EVQLVQSGAEVKKPGSSVKVSCKASGGTFSSYAISWVRQAPGQGLEWMGGIIPIFGTANYAQKFQGRVTITADKSTSTAYMELSSLRSEDTAVYYCARAPLRFLEWSTQDHYYYYYMDVWGKGTTVTVSSG[letters of about 450 residues with a human IgG1 Fc not shown]
chain 2: [letters of about 100 residues not shown]GGGGGGGSSELTQDPAVSVALGQTVRITCQGDSLRSYYATWYQQKPGQAPILVIYGENKRPSGIPDRFSGSSSGNTASLTITGAQAEDEADYYCKSRDGSGQHLVFGGGTKLTVLGGGGGRTVAAPSVFIFPPSDEQLKSGTASVVCLLNNFYPREAKVQWKVDNALQSGNSQESVTEQDSKDSTYSLSSTLTLSKADYEKHKVYACEVTHQGLSSPVTKSFNRGEC
The term Kd denotes the concentration at which binding is half-saturated. A low value points to higher affinity. On to B1, for which the figures for the Kd in the experiment with HER2 [1], with HER2 [2] and with HER2 [3] were 0.153 nM, 0.163 nM and 0.041 nM, respectively.

B2: CODV-Ig 302/416 HC11/LC11, HER2 arm (antibody)
chain 1: [letters of about 120 residues not shown]GEVQLVQSGAEVKKPGSSVKVSCKASGGTFSSYAISWVRQAPGQGLEWMGGIIPIFGTANYAQKFQGRVTITADKSTSTAYMELSSLRSEDTAVYYCARAPLRFLEWSTQDHYYYYYMDVWGKGTTVTVSSGG[letters of human IgG1 constant region not shown]
chain 2: SSELTQDPAVSVALGQTVRITCQGDSLRSYYATWYQQKPGQAPILVIYGENKRPSGIPDRFSGSSSGNTASLTITGAQAEDEADYYCKSRDGSGQHLVFGGGTKLTVLGGGGGGG[letters of about 100 residues not shown][letters of about 120 residues not shown]
In the case of B2, the Kd in the experiment with HER2 [1] and with HER2 [3] was 0.163 nM in each case.

B3: CODV-Fab 418, HER2 arm (antibody)
chain 1: [letters of about 120 residues not shown]GEVQLVQSGAEVKKPGSSVKVSCKASGGTFSSYAISWVRQAPGQGLEWMGGIIPIFGTANYAQKFQGRVTITADKSTSTAYMELSSLRSEDTAVYYCARAPLRFLEWSTQDHYYYYYMDVWGKGTTVTVSSGG[letters of human IgG1 constant region not shown]
chain 2: SSELTQDPAVSVALGQTVRITCQGDSLRSYYATWYQQKPGQAPILVIYGENKRPSGIPDRFSGSSSGNTASLTITGAQAEDEADYYCKSRDGSGQHLVFGGGTKLTVLGGGGGGG[letters of about 100 residues not shown][letters of about 120 residues not shown]
For B3, in the experiment with HER2 [3], the Kd amounted to 0.19 nM.

These data come from US20140056895 (published 2014).
